Data published in ChEMBL document CHEMBL1201862, “PubChem BioAssay data set” (2004).
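Interpolation was linear, between the two tested concentrations surrounding the appropriate level; five concentrations were tested over 48 hours in 96-well plates. GI50 marks 50% less growth.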 Active and inactive are the calls of the source. Rule as the data show it: active = GI50 up to about 1.1 µM and inactive = higher. Square brackets hold non-standard residues; d marks the D form. Peptide text beside a SMILES is read from it. * marks the point of attachment. ΔPro = O=C(O)[CH]1C=CCN1; Boc = CC(C)(C)OC(=O)*; OSu = O=C1CCC(=O)N1O*

What follows are compounds tested on NCI-H322M (assay: NCI-60 cell line screen, 48 h).
For O=C(N[C@@H](c1ccccc1)[C@@H](O)C(=O)OCc1ccc([N+](=O)[O-])cc1)c1ccccc1, the GI50 was inactive: > 100 µM.
With O=C(O)CCC(C(=O)O)N1C(=O)c2ccccc2C1=O (stereo unspecified) the GI50 was inactive: > 100 µM.
In the case of CCOC(=O)c1ccc2nc3n(c2c1)C(c1c(F)cccc1F)SC3 (stereo unspecified), the GI50 was inactive: > 100 µM.
For Cn1c2ccccc2c2nc3ccccc3c(Cl)c21, the GI50 was inactive: > 100 µM.
In the case of CCC(C)C(Nc1c2ccccc2nc2c(C(=O)NCCN(C)C)cccc12)C(=O)O (stereo unspecified), the GI50 was inactive: 12.9 µM.
With O=C(CC1Sc2ccccc2NC1=O)Nc1cccc(Cl)c1 (stereo unspecified) the GI50 was inactive: 95.5 µM.
Cc1cc2c(c(=O)n1C)SCC2 was tested, and the GI50 was inactive: > 100 µM.
For COc1ccc(C(O)c2nccn2C)c(OC)c1 (stereo unspecified), the GI50 was inactive: > 100 µM.
For Cc1nn(C(=O)Cc2ccccc2)c2c1C(c1ccc([N+](=O)[O-])cc1)SC(=N)N2 (stereo unspecified), the GI50 was inactive: > 100 µM.
With CCOC(=O)/C(=C\NCC(O)c1ccccc1)c1nc2ccccc2[nH]1 (stereo unspecified) the GI50 was inactive: 30.3 µM.
With CCCCCCC(O)C/C=C/CCCCCC/C(C(=O)OC)=C(/O)C(=O)OCC (stereo unspecified) the GI50 was inactive: > 100 µM.
CC(NC(=O)C(NC(=O)OC(C)(C)C)C(C)C)C(=O)NCC(=O)ON1C(=O)CCC1=O (stereo not drawn) (Boc-Val-Ala-Gly-OSu; configuration not given here) was tested, and the GI50 was inactive: > 100 µM.
In the case of O=C(O)CCc1nc2ccccc2[nH]1 [PROCODAZOLE], the GI50 was inactive: > 100 µM.
CCOC(=O)[C@@]12C(C)=CC(=O)O[C@]1(C)C[C@H]2C#N was tested, and the GI50 was inactive: 35.1 µM.
In the case of O=C(O)C1C=CCN1C(=O)C1C=CCN1C(=O)C1C=CCN1 (stereo unspecified) (H-[ΔPro]-[ΔPro]-[ΔPro]-OH; configuration not given here), the GI50 was inactive: > 100 µM.
For Cc1[nH]c2ccccc2c1C(=O)CC1(O)C(=O)Nc2ccccc21 (stereo unspecified), the GI50 was inactive: > 100 µM.
C/C(CCn1[nH]c(=O)ccc1=O)=N\OCCCc1ccccc1 was tested, and the GI50 was inactive: > 100 µM.
With O=C(O)c1[nH]c(=O)[nH]c(=O)c1CN1CCCCC1 the GI50 was inactive: > 100 µM.
With C/C(=N/NC(=O)c1ccncc1)C(F)(F)F the GI50 was inactive: > 100 µM.
In the case of COP(=O)(OC)/C(=C/c1c[nH]c2ccccc12)C(=O)O, the GI50 was inactive: > 100 µM.
CC1CCCC(C(=O)CC2CC(=O)NC(=O)C2)C1=O (stereo unspecified) was tested, and the GI50 was inactive: > 100 µM.
With COc1cc(C2c3[nH]c4ccccc4c3C[C@H]3COC(=O)N23)cc(OC)c1OC (stereo partly specified) the GI50 was active: 0.0743 µM.
For Cc1c(CCCl)c(=O)n2c([nH]c3ccccc32)c1C#N, the GI50 was inactive: 1.78 µM.
For Clc1ccc(-n2nnc(C3=NCCN3)c2-c2ccccc2)cc1, the GI50 was inactive: > 100 µM.
With NCCCC(N/C=C1/N=C(c2ccccc2)OC1=O)C(=O)O (stereo unspecified) the GI50 was inactive: > 100 µM.
For CC1(C)C2C=CC1(C)C1(CC2)OCCO1 (stereo unspecified), the GI50 was inactive: > 100 µM.
With NC1=C(NC(=O)Cc2ccccc2F)C(=O)c2ccccc2C1=O the GI50 was inactive: > 100 µM.
With O=C(Nc1ccc(C(F)(F)F)cc1)NC(F)(F)F the GI50 was inactive: > 100 µM.
In the case of Clc1cccc(Cl)c1/C=N/C12CC3CC(CC(C3)C1)C2, the GI50 was inactive: > 10 µM.
With C[C@@]1(O)C2C3CC4C5C3C1[C@](O)(C42)[C@H]5Br (stereo partly specified) the GI50 was inactive: > 100 µM.
In the case of COc1cc(/C=C(\C#N)c2nc3ccccc3o2)ccc1O, the GI50 was inactive: 15.6 µM.
With CC1(C)CC(=O)C2=C(C1)OC1(CC2c2ccc(Cl)cc2)CC(c2ccc(Cl)cc2)C2=C(CC(C)(C)CC2=O)O1 (stereo unspecified) the GI50 was inactive: 15.5 µM.
CC(=O)O[C@H]1[C@@H](OC2CCCC2(c2ccccc2)c2ccccc2)O[N+]([O-])=C[C@@]12COCc1cc3c(cc12)OCO3 (stereo partly specified) was tested, and the GI50 was inactive: 7.94 µM.
For CC#CC(=O)Nc1ccccc1CC(c1c[nH]c2ccccc12)c1c[nH]c2ccccc12, the GI50 was inactive: 21.8 µM.
In the case of COc1cc(-c2oc3c(OC)c(O)c(OC)c(O)c3c(=O)c2OC)ccc1O, the GI50 was inactive: 65.8 µM.
For COC(=O)[C@@]12C(=O)CCC(=O)C1C1C(=CC2C)O[C@@H]2OC3(CCCCC3)O[C@H]12 (stereo partly specified), the GI50 was inactive: > 100 µM.
CC(=O)OC1CC[C@@]2(C)C(CC(OC3OC(CO)C(O)C(O)C3O)[C@]3(C)C2CCC24CC23CC[C@H]4C(C)CC(O)[C@@H](O)C(C)(C)O)C1(C)C (stereo partly specified) was tested, and the GI50 was inactive: 14.6 µM.
O=S(=O)(O)SC/C=C\CSS(=O)(=O)O was tested, and the GI50 was inactive: > 100 µM.
COc1cc(/C=C(\C#N)C(=O)c2ccccc2)cc(OC)c1OC was tested, and the GI50 was inactive: > 100 µM.
CC(N)CC(=O)O (stereo unspecified) was tested, and the GI50 was inactive: 1630 µM.
Cc1ccc(/C=N/NS(=O)(=O)c2ccc(/C=C3\NC(=O)NC3=O)cc2)cc1 was tested, and the GI50 was inactive: > 100 µM.
CC(C)c1cccc(C(C)C)c1NC(=O)C(=O)C1SC(=S)NC1=O (stereo unspecified) was tested, and the GI50 was inactive: > 100 µM.
For CC(C)/C=N\n1c(N)c(C#N)c(C#N)c1C(C)C, the GI50 was inactive: 41.9 µM.
For O=C1/C(=N/N=C(c2ccccc2)c2ccccc2)c2ccccc2-c2ccccc21, the GI50 was inactive: 39.3 µM.
For CC1=C(C(=O)Nc2cc(F)c(F)cc2F)C(c2ccc(N(C)C)cc2)C(C(=O)Nc2cc(F)c(F)cc2F)=C(C)N1, the GI50 was inactive: 28.8 µM.
For Nc1nc(Cl)cc(NCC2(CO)CC(O)C2)n1 (stereo unspecified), the GI50 was inactive: > 100 µM.
COc1cc([N+](=O)[O-])c(OC)c2c(Nc3ccc(S(=O)(=O)O)c4cc(S(=O)(=O)O)cc(S(=O)(=O)O)c34)cc(C)nc12 was tested, and the GI50 was inactive: > 100 µM.
With CC(=O)O[C@H]1CC[C@H]2[C@@H]3CCC4=C/C(=N/OCCN(C)C)CC[C@]4(C)[C@H]3CC[C@]12C the GI50 was inactive: 12.5 µM.
COc1cc(CNc2nc3cc(C(F)(F)F)ccc3nc2C)cc(OC)c1OC was tested, and the GI50 was inactive: 22.2 µM.
Oc1ccccc1/C=N/c1nc2cc3sc(/N=C/c4ccccc4O)nc3cc2s1 was tested, and the GI50 was inactive: > 83.9 µM.
With O=C(CC(C(=O)c1ccco1)c1ccsc1)c1ccco1 (stereo unspecified) the GI50 was inactive: > 100 µM.
For Cc1ccc(S(=O)ON2CCC(C(=O)O)(c3ccccc3)CC2)cc1 (stereo unspecified), the GI50 was inactive: > 100 µM.
CNc1cc2c(c3ccccc13)C(CCl)CN2C(=O)c1cc2cc(OC)c(OC)c(OC)c2[nH]1 (stereo unspecified) was tested, and the GI50 was active: 0.0158 µM.
With CC(=O)OC1COC(n2c(N)c(C#N)c(C)c(C#N)c2=S)C(OC(C)=O)C1OC(C)=O (stereo unspecified) the GI50 was inactive: > 100 µM.
For CC(=O)OCC1OC(N2C(c3ccccc3)=CC(c3ccccc3)C(C#N)=C2S)C(OC(C)=O)C(OC(C)=O)C1OC(C)=O (stereo unspecified), the GI50 was inactive: 27 µM.
For NC(Cc1ccc(O)cn1)C(=O)NC(C(=O)O)c1ccccc1 (stereo unspecified), the GI50 was inactive: > 100 µM.
In the case of O=C(O)c1ccc(SSc2ccc(C(=O)O)cn2)nc1, the GI50 was inactive: > 100 µM.
O=C(O)C/N=C(\C(=N\CC(=O)O)c1ccccc1)c1ccccc1 was tested, and the GI50 was inactive: > 100 µM.
CC/C=C/c1cc2c(cc1O)CCC1C2CC[C@@]2(C)C1CC[C@@H]2O (stereo partly specified) was tested, and the GI50 was inactive: 2.48 µM.
Cc1c(CNc2ccc(Cl)c(Cl)c2Cl)cnc2nc(N)nc(N)c12 was tested, and the GI50 was inactive: 3.11 µM.
With COC(=O)C12C(=O)O[C@H](C)C1(O)C(C)C(=O)N2C (stereo partly specified) the GI50 was inactive: > 100 µM.
NCCCCCNOCCCN was tested, and the GI50 was inactive: > 100 µM.
For CC(=O)O[C@H]1CC[C@@]2(C)C(=CC[C@H]3C4=CC=C(C(C)=O)[C@@]4(C)CCC32)C1 (stereo partly specified), the GI50 was inactive: 77.3 µM.
O=C(O)Cc1ccc2c(c1O)C(=O)c1c(ccc(CC(=O)O)c1O)C2=O was tested, and the GI50 was inactive: > 100 µM.
With CC1=CC(=O)c2ccc(C)cc2C1=O [CHIMAPHILIN] the GI50 was inactive: 18.2 µM.
In the case of COP(=O)(OC)C1=c2c(C)noc2=C2C=COC2C1=O (stereo unspecified), the GI50 was inactive: > 100 µM.
